# Measurements reported in PubChem BioAssay (NCATS).
# This is one part of the list. Further columns of the screen follow, without active or inactive calls. The list favours compounds with an active or inconclusive main result.
# Assay: qHTS Assay for Lipid Storage Modulators (AID 1519)
# Details: Drosophila S3 cells, BODIPY lipid droplet/cell ratio, laser cytometry; measured here: lipid channel max response; cells loaded with oleic acid
# Summary of the method: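 Cells seeded at 5,000 per well were treated with compounds over a concentration series and loaded with oleic acid (400 uM, as added). Lipid droplet fluorescence (488 nm excitation, 500-530 nm channel) was read by laser-scanning cytometry and normalized to 20 uM Triacsin C.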
row,SMILES,max response [%]
1,COCCn1c(=O)c(-c2cccs2)nc2cnc(Nc3ccccc3)nc21,-21
2,CC1(C)S[C@H]2[C@@H](NC(=O)C(N)c3ccccc3)C(=O)N2[C@H]1C(=O)O (some centres not stated),-8.79
3,C=C1C([C@@]2(C)C(OC(C)=O)CC(=O)O[C@@](C)(COC(C)=O)C2CC(=O)OC)C(OC=O)C(OC(=O)C(O)C(C)CC)[C@]2(C)C(c3ccoc3)CC(=O)C12O (some centres not stated),-9
4,Oc1ccc2c(c1)OCC1c3cc4c(cc3OC21)OCO4 (configuration not stated),32.4
5,COCCn1c(=O)c(-c2cccs2)nc2cnc(OC)nc21,-2.85
6,COc1ccccc1-c1cc(NCc2cnc(C)cn2)ncn1,24.5
7,CN(Cc1ccco1)c1cc(-c2cccnc2)ncn1,21.1
8,CNC(=O)[C@H]1O[C@H](n2cnc3c(NCc4cccc(I)c4)nc(Cl)nc32)[C@@H](O)[C@@H]1O,75.4
9,O=S(=O)(c1ccccc1)N1CCC2(CCCN(c3ccncc3)C2)CC1,-71.4
10,c1cncc(-c2ccc3ncnc(N4CCNCC4)c3c2)c1,22.3
11,CC1CC2C(C(O)C[C@]3(C)C2CC[C@]3(O)C(=O)CO)[C@]2(C)C=CC(=O)C=C12 (some centres not stated),40
12,CCNc1ncc2nc(-c3ccc(F)cc3)c(=O)n(C)c2n1,28.7
13,Cc1ccccc1-c1cc(N2CCNCC2)ncn1,34.2
14,COCCn1c(=O)c(-c2cn(C)c3ccccc23)nc2cnc(N3CCNCC3)nc21,27.6
15,Nc1nc(/C(=C/CC(=O)O)C(=O)NC2C(=O)N3C(C(=O)O)=CCSC23)cs1 (configuration not stated),40
16,Cc1nc2cnc(Oc3ccccc3)nc2n(C2CC2)c1=O,21.3
17,COc1ccc(NC(=O)N2CCCC3(CCN(C(=O)c4ccco4)CC3)C2)cc1,34.5
